In the supplement of paper PMC10126150 one finds switch fluorescence ratio data, which are given here for 79 sequences.

Sequences with one replicate were seen in a single cluster, so their values are uncertain.

This data set concerns ATP. Kind of data set: switch fluorescence ratio, 500 uM ATP over buffer (Cy3 cluster intensity, sum of 5 cycles each) (fold (ratio)); higher = stronger signal-on switching upon ATP binding; sequences stand for … in TCGTCGGCAGCGTCAGATGTGTATAAGAGACAGTTTTTTTTTTTTTTTTTTTTTTTTT…TC. The conditions noted are these: aptamer strand: ATP DNA aptamer (quencher-CACCTGGGGGAGTATTGCGGAGGAAGG + anchor), 100 nM annealed; ATP concentration: 500 uM; one replicate. A digest of the protocol:
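The quencher-labelled ATP aptamer, at 100 nM, was annealed to Cy3-labelled switching-strand clusters on a modified Illumina MiSeq flow-cell. The clusters were imaged in selection buffer, then after 15 min with 500 uM ATP at 22 °C, and this buffer/ATP cycle ran five times with NaOH stripping and re-annealing between runs. Per-cluster fluorescence ratios, summed target-cycle over summed buffer-cycle Cy3 intensity, were averaged per switch-domain sequence. Clusters outside 100-1000 RFU were excluded.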
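Further: ATP exposure 15 min at 22 °C before imaging.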

Regarding GGGTTATTTA, the switch fluorescence ratio was determined as 1.04.
Regarding ATACGGTAAC, the switch fluorescence ratio was determined as 1.15.
For the sequence GGAGAATAGA, the switch fluorescence ratio is 1.03.
In the case of CTTATTCGA, the switch fluorescence ratio was 1.02.
As to TCGATACTAT, the switch fluorescence ratio came to 1.01.
For AACGCACAGC the value was 1.45; for TTGAACGGCT, 1; for TCGTATCTG, 0.878.
For AAAGCACATA the value was 1.17.
For TCCCGCCGGG the value was 1.6; for AATTAATGAG, 1.08; for ATCATAGTAA, 1.01.
Take TTATGGCCGC: the switch fluorescence ratio came to 1.03.
Consider TTAGGACCTG, for which the switch fluorescence ratio was 1.02.
The same measure for CGATACATAG: 1.03; for GTAACTAGCT: 0.986; for TGCATCAGTA: 0.99.
The same measure for AGCTTGCGTG: 0.965; for GTCAGACTCA: 1.02.
Take GCGGAAGGAT: the switch fluorescence ratio came out at 0.994.
For the sequence GATCTTTTAC, the switch fluorescence ratio stood at 0.917.
For TTAATCTCAG the value was 0.985.
Regarding GATACCTCAG, the switch fluorescence ratio came out at 1.02.
For CCTCGGGAAG the value was 1.21; for CCAGATGGTT, 0.983; for TTAGATTTGG, 1.01.
Take GGGTTAGCGT: the switch fluorescence ratio is 1.02.
The same measure for GAGTAACCGC: 1.03; for ACAAAGGGTA: 1.08; for CTTTATCGAG: 1.07.
GAGTCCTG: the switch fluorescence ratio was determined as 0.988.
For ATGTTCGTTC the value was 1.02; for TCACTTTA, 1.04.
The same measure for CAGGTATCTA: 1.
The same measure for AGAATGGTAC: 1.05.
For the sequence ACCCTTTT, the switch fluorescence ratio was 1.2.
The same measure for TATAAATGA: 1.02; for AATCTGGTCT: 0.994; for AGAACTGGAC: 1.13.
Take GAAATGCCTA: the switch fluorescence ratio is 0.989.
Regarding CCCATGTCC, the switch fluorescence ratio amounted to 1.04.
For CACTCCAGCG the value was 1.39; for TTGATTCGTC, 0.999; for CACGATGGTC, 1.
The same measure for TAGATGCTGG: 0.988; for GTTTGCACTA: 1.18; for GGTTAACTA: 1.01.
For the sequence TTATCCTACA, the switch fluorescence ratio came out at 1.03.
As for CTAGGTAAGG, the switch fluorescence ratio came to 0.978.
The same measure for ACACAGTTAT: 1.02; for GAGTATTGGC: 1.02.
AGTTTATGGA: the switch fluorescence ratio came out at 0.987.
The same measure for ATAGGAAGAA: 0.999; for AAGGAGATTG: 0.992.
For TGCTATTTGA the value was 0.962.
The same measure for GAACAGCCGT: 1.13; for GTACAGGAGG: 1.02.
As for CTATATTACG, the switch fluorescence ratio was found to be 1.01.
With AATATGCGGT, the switch fluorescence ratio was 0.948.
For TTTCCGTGCG the value was 1.14; for TCATGTGAGC, 0.966; for CTGCGTGCGT, 0.985.
In the case of TCATTTGAGC, the switch fluorescence ratio is 1.03.
As for GCCCATGCTT, the switch fluorescence ratio stood at 1.
Take TCTACCATGA: the switch fluorescence ratio came out at 1.02.
The same measure for TCCTAGGTGC: 2.79.
TCAAAATTCC: the switch fluorescence ratio was determined as 1.41.
The same measure for GGTTACTCCC: 1.76; for ATTCATGAA: 1.02; for TACTTGGGAT: 1.04.
For GCGGTCAC the value was 1.49; for GCCTTTCTTG, 1.1; for CCATGAGATA, 1.03.
As for GAATCAGCTT, the switch fluorescence ratio turned out to be 0.982.
Turning to CGAGGCCCGT, the switch fluorescence ratio stood at 0.99.
For the sequence TAGAACTAGC, the switch fluorescence ratio came out at 0.987.
As for GTGCTAGTTG, the switch fluorescence ratio was 1.02.
The same measure for TCTATGGACG: 1.08; for TTTGTGCAAC: 0.971.
